From PubChem BioAssay AID1645882 (National Center for Advancing Translational Sciences (NCATS), 2021)
The campaign covered roughly 16,000 compounds. About 120 (0.75%) were called active. Inconclusive results (about 4%) are left out. The call rests on the fitted dose curve; in most records, active means well fitted inhibition curve with a large enough effect; inconclusive means small, poorly fitted or top-dose-only effect; inactive means no such curve, though single readings can be large or run the other way. Some of the results follow.

Molecular target: Rap guanine nucleotide exchange factor 3 (Homo sapiens) (UniProt O95398)
UniProt O95398, sequence (O95398 whole entry, looked up): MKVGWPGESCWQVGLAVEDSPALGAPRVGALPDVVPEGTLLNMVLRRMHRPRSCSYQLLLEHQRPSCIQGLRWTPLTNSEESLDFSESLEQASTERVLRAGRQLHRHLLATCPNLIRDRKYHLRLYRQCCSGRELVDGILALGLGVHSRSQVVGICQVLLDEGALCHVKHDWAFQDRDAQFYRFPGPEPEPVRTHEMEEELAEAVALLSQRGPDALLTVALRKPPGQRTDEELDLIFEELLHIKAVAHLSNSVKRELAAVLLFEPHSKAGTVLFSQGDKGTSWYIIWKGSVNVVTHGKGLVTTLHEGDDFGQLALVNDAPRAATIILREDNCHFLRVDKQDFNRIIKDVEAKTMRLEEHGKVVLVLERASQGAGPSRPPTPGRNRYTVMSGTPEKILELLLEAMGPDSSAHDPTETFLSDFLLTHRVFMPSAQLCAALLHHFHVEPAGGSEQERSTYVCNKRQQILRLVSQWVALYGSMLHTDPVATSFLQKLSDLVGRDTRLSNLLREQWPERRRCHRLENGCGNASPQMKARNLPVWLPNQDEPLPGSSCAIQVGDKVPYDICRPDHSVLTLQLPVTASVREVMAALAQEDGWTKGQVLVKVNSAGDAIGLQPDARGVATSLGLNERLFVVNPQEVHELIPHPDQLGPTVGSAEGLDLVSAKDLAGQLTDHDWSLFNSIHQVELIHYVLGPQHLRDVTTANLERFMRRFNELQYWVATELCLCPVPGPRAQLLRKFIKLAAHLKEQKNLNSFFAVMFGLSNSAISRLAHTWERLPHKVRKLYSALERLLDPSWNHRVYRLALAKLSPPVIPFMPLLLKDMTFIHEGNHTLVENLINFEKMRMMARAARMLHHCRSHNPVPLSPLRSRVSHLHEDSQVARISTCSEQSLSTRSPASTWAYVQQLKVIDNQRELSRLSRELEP
Assay: Validation qHTS for antagonist of cAMP-regulated guanine nucleotide exchange factor 3 (EPAC1);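 further: plate controls were DMSO for no effect and ATA control for full effect; nearly all actives have a fitted effect of over 75% in size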
Conditions: EPAC1 Rap1B-BODIPY-GDP exchange, fluorescence; series mostly up to 150 µM; activity change, negative = inhibition: at the top concentration
Procedure, shortened: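 Nucleotide exchange followed as fluorescence loss when BODIPY-GDP leaves Rap1B (480 nm excitation, 540 nm emission), read at 5 min intervals over 30 min. Reaction: 100 nM EPAC1, 250 nM RAP1B-BODIPY-GDP, 50 uM GDP; ATA and DMSO define normalization.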

Activity change, negative = inhibition, inactive:
CCCCC/C=C\C=C\[C@H](O)CCCCCCCC(=O)O 18.8% [at 1.57 µM], CN1C[C@H](C(=O)N[C@]2(C)O[C@@]3(O)C4CCCN4C(=O)[C@H](Cc4ccccc4)N3C2=O)C[C@@H]2c3cccc4[nH]cc(c34)C[C@H]21 (some centres not stated) 2.41%, O[C@@H](CNC[C@H](O)[C@H]1CCc2cc(F)ccc2O1)[C@@H]1CCc2cc(F)ccc2O1 32.6%, CCCCCC(=O)/C=C/C=C\CCCCCCCC(=O)O 12.2% [at 1.57 µM], Oc1ccc(Cl)cc1Sc1cc(Cl)ccc1O -15.1%, CC(=O)Nc1ccc(C(=O)N2CCCC(c3nc(SCc4ccccn4)ncc3C)C2)cc1 (configuration not stated) 20.1%, CC(=O)N1CCC2(CC1)CN(C(c1ccccc1)c1ccccc1)C2 12.1%, CC1(C)S[C@@H]2[C@H](NC(=O)[C@H](N)c3ccccc3)C(=O)N2[C@H]1C(=O)O 9.83%, O=C(Nc1cccc(F)c1)N1CCC2(CC1)CCN(C(=O)c1cnccn1)CC2 11.1%, COc1ccccc1CN1CC[C@@]2(CCCN(C(=O)c3c(C)noc3C)C2)C1 2.34%, C[N+]1(C)C2CC(OC(=O)C(CO)c3ccccc3)CC1C1OC12 (configuration not stated) 24.8%, CCC1(C2CCN(C(=O)c3ccccc3C)CC2)NC(=O)N(CCc2scnc2C)C1=O (configuration not stated) 16.5%, NC(CS)C(=O)O (configuration not stated) 11.4%, O=C(c1csnn1)N1CCC[C@@]2(CCN(c3cccc(-c4ccccc4)c3)C2)C1 16%, CS(=O)(=O)Nc1c(O)ccc2c1CCCC2C1=NCCN1 (configuration not stated) 29.2%, COCCNc1ncnc2ccc(-c3ccoc3)cc12 9.68%, COc1ccc(C(=O)N2CCC3(CCN(Cc4nccs4)CC3)CC2)cc1 29.9%, COc1ccc2cc([C@H](C)C(=O)O)ccc2c1, O=C(O)/C=C1\CCCc2ccccc2C1O (configuration not stated) 14.8%, NC(=O)[C@@H]1CCCN1C(=O)CC1(c2cccc(F)c2)CC(=O)N(C2CCCC2)C1=O (some centres not stated) 15.2%, COc1cc(OC)cc(C(=O)N2CCCC(n3cc(C(=O)NCC(C)C)nn3)C2)c1 (configuration not stated) -0.633%, O=C(O)[C@H]1CCCNC1 6.98%, C[C@]12CCC(=O)C=C1[C@@H]1C[C@@H]1[C@H]1[C@@H]3[C@@H]4C[C@@H]4[C@@]4(CCC(=O)O4)[C@@]3(C)CC[C@@H]12 22.4%, N#Cc1cccc(-c2cc(NCc3ccccc3)ncn2)c1 -1.97%, C=C(C)[C@H]1CC=C(C)C(=O)C1 16.7%, Cc1noc(C)c1-c1ccc2ncnc(NC3CCNCC3)c2c1 19.5%, Cc1c(C(=O)NCCc2cccnc2)cnn1-c1nccc(-c2ccccc2F)n1 1.64%, CC(=O)C[C@H]1c2ccccc2S(=O)(=O)N1C1CCCCC1 2.7%, CC1=C(/C=C/C(C)=C/C=C/C(C)=C/CO)C(C)(C)CCC1, COC(=O)c1ccccc1C(=O)NCc1nc(N2CCCC2)c2cccc(C)c2n1 9.4%, Cc1noc(C)c1C(=O)N1CCC2(CCN(Cc3cc(C(F)(F)F)cc(C(F)(F)F)c3)CC2)CC1 -13.8%, COc1ccccc1N1CCN(CCN(C(=O)c2ccc(I)cc2)c2ccccn2)CC1 -11.8% [at 75.8 µM], COc1ccccc1CCc1nc2ccccc2n1C1CCN(C(=O)c2cc(C)nn2C)CC1 12.7%, O=C(O)c1ccccc1OP(=O)(O)O 16.5%, O=S(=O)(c1ccccc1)N1CCC2(CC1)CN(c1ncccn1)C2 -9.22%, OC1(c2ccc(Cl)cc2)CCN(Cc2c[nH]c3ccccc23)CC1, COC(=O)c1c(C)cc(OC(=O)c2c(C)cc(O)c(C=O)c2O)c(C)c1O 5.59%, C/C=C(/C(=C/C)c1ccc(O)cc1)c1ccc(O)cc1, Nc1nc2[nH]c(=O)[nH]c2c(=O)[nH]1 14.1%, COc1ccccc1CN1CC2(CCN(S(=O)(=O)c3ccccc3)CC2)C1 1.32%, Cc1ncc([N+](=O)[O-])n1CC(C)O (configuration not stated) 14.5%, O=C(NC1CCCC1)c1cn(C2CCCN(Cc3ccc4c(c3)OCCO4)C2)nn1 (configuration not stated) -0.456%, O=c1c2ccccc2oc2ccc(Oc3ccccc3)cc12 -13%, CC(C)C[C@H](NC(=O)N1CCCCCC1)C(=O)N[C@H](Cc1cn(C)c2ccccc12)C(=O)N[C@H](Cc1ccccn1)C(=O)O 8.7%, NC(=Nc1ccccc1)NC(=O)c1nc(Cl)c(N)nc1N, Clc1ccc(-n2cccc2CN2CCc3nnc(Cc4ccccc4)n3CC2)nc1 11.9%, C[C@]12CCC(=O)C=C1CC[C@@H]1[C@H]2[C@@H](O)C[C@@]2(C)[C@H]1CC[C@]2(O)C(=O)CO 18.8%, CO[C@H]1[C@H](NC(=O)c2ccsc2)c2ccccc2C12CCN(Cc1ccc3c(c1)OCO3)CC2 3.91%, CN1CCN(CCC=C2c3ccccc3Sc3ccc(S(=O)(=O)N(C)C)cc32)CC1, CC(=O)NCCNc1nc(-c2cccc(C#N)c2)nc2ccccc12 -0.185%, CC1=C(/C=C/C(C)=C/C=C/C(C)=C\CO)C(C)(C)CCC1 26.8%, CCOC(=O)C[C@H]1c2ccccc2S(=O)(=O)N1C1CC1 18.2%, Cc1cc[n+](CCC2CCCCC2)c2ccccc12 21.3%, Cc1ccc(-n2cc(CCCCCCCCC(=O)O)nn2)cc1 -6.33%, Nc1ccc(C(=O)O)cc1, CCN1CCCC(OC(=O)C(c2ccccc2)c2ccccc2)C1 (configuration not stated), CN1CCN(c2ncc3nc(-c4cc(F)cc(F)c4)c(=O)n(-c4ccccc4)c3n2)CC1 -1.52%, [N-]=[N+]=NC[C@H](Cc1ccccc1)N1CC[C@@H](O)CCC1=O 6.48%, COc1ccc(C(=O)N2CCC3(CC2)CN(C(=O)NC(C)C)C3)cc1 10.6%, COCCn1c(=O)c(C)nc2cnc(N3CCOCC3)nc21 2.6%, O=C(O)C[C@H]1c2cc(F)ccc2S(=O)(=O)N1C1CCCC1 11.6%, CC(=C\c1ccccc1)/C=C1/SC(=S)N(CC(=O)O)C1=O 25.3%, COc1c(C)c2c(c(O)c1C/C=C(\C)CCC(=O)O)C(=O)OC2, Clc1ccccc1-c1nc(-c2ccncc2)no1 11.6%, COc1ccc(Oc2ncc3nc(-c4ccc(OC)cc4)c(=O)n(C4CC4)c3n2)cc1 5.81%, COC(=O)[C@@H]1C[C@H](NC(=O)c2cc(C(F)(F)F)ccc2Cl)CN1Cc1cccc(O)c1 11.1%, O=C(O)c1ccc(S(=O)(=O)N(Cl)Cl)cc1 5.86%, O=C(Oc1ccccc1C(=O)O)c1ccccc1O 25.9%, O=C(c1ccco1)N1CCC[C@@]2(CCN(Cc3ccccc3)C2)C1 4.93%, COc1ccc(CN2CCc3nnc(CCc4ccccc4)n3CC2)c(OC)c1C 2.12%, N[C@H](C(=O)O)C1C(C(=O)O)C1C(=O)O (some centres not stated) 15.6%, O=C1CCC[C@@H]2CC(Nc3ccccc3)C[C@@H]3CCN1[C@H]23 (some centres not stated) 5.34%, COC1=C(C(=O)O)N2C(=O)[C@@H](NC(=O)[C@H](N)C3=CCC=CC3)[C@H]2SC1 30.7%, O=[N+]([O-])c1cccc(CN2C[C@@]34C=C[C@@H](C[C@@H]3S2(=O)=O)O4)c1 -10.6%, COc1ccc(NC(=O)[C@@H]2CC=C[C@@H]3CCN(C4CCCCC4)C(=O)[C@@H]32)cc1 7.2%, O=C(O)CCc1cccnc1 23.9%, NS(=O)(=O)c1cc(Cl)c(Cl)c(S(N)(=O)=O)c1 20.5% [at 75.8 µM], CC(C)(C)c1ccc(C(=O)C[n+]2ccc(Cl)c3ccc(Cl)cc32)cc1 24.8%, C[C@]12CC[C@@H](O)C[C@@H]1CC[C@@H]1[C@@H]2CC[C@]2(C)C=CC[C@@H]12 2.77%, O=C(c1cccc(F)c1)N1CCC[C@@]2(CCN(Cc3nccs3)C2)C1 14.8%, C[C@H]1[C@H](C)CC[C@]2(C(=O)O)CC[C@]3(C)C(=CCC4[C@@]5(C)CC[C@H](O)C(C)(C)[C@@H]5CC[C@]43C)[C@H]12 (some centres not stated) -6.12%, O=C(c1csnn1)N1CCC[C@@]2(CCN(c3ccncc3)C2)C1 9.12%, Cc1c(C(=O)O)c(O)cc2c1C(=O)c1c(O)c([C@H]3O[C@H](CO)[C@@H](O)[C@H](O)[C@H]3O)c(O)c(O)c1C2=O -23%, Cc1csc(C(C)N(C)C(=O)c2cc(NC(=O)C3CCC3)c3c(c2)nc(-c2ccncc2)n3C)n1 (configuration not stated) 14.7%, COc1ccc(/C=C/C(=O)NCC2Cc3cccc(-c4nc(C)cnc4C)c3O2)cc1OC (configuration not stated) 5.92%, O=C(NCCN1CCOCC1)c1ccc(Cl)cc1, Fc1ccc(N2CCN(Cc3ccc4c(c3)CN(Cc3cccn3-c3ncccn3)CCO4)CC2)cc1 -1.21%, O=C(c1ccncc1)N1CCC2(CC1)CN(c1ccc(-c3ccccc3)cc1)C2 -0.329%, N#Cc1ccc(CN2CC3(CCN(C(=O)c4cc(C(F)(F)F)cc(C(F)(F)F)c4)CC3)C2)cc1 7.37%, COCCn1c(=O)c(-c2ccccc2)nc2cnc(N3CCOCC3)nc21 14.2%, Cc1ccc(/C(=C/CN2CCCC2)c2ccccn2)cc1 1.58%, CN(C)CCCSC(=N)N, COc1ccc(-c2cc(=O)c3c(O)cc(O[C@@H]4OC(COC5OC(C)C(O)C(O)[C@@H]5O)C(O)C(O)C4O)cc3o2)cc1 (some centres not stated) 3.76%, Cn1cnnc1Sc1ccc(CN2CCOc3ccc(C4=CCCCC4)cc3C2)o1 8.23%, COc1ccc(-n2c(=O)c(-c3cccc(C#N)c3)nc3cnc(N4CCNCC4)nc32)cc1 8.74%, CNc1ncnc2ccc(-c3ccccc3CN(C)C)cc12 13.2%, COc1ccc(-c2coc3cc(O)ccc3c2=O)c(OC)c1O 19.4%, NCCNCCNCCN -3.71%, COc1ccccc1CNc1nc(-c2ccccc2CN(C)C)nc2ccccc12 5.55%, COc1ccccc1C1OC(=O)CC1C(=O)OC[C@@H]1CCCN2CCCCC12 (some centres not stated) -1.78%, Cc1onc(-c2c(F)cccc2Cl)c1C(=O)N[C@@H]1C(=O)N2[C@@H]1SC(C)(C)[C@@H]2C(=O)O, COc1ncc2nc(CCc3ccccc3)c(=O)n(CCc3ccccc3)c2n1 15.6%
